# Assay results reported in PubChem BioAssay AID651711 (Broad Institute, 2012).
# The whole screen tested about 350,000 compounds, of which about 180 (0.051%) were called active. The shares of active, inactive and inconclusive entries below differ from those in the screen.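 Rule for the calls: active = mean replicate inhibition above about 25%, with every replicate also reaching it (limit read from the data, passing the limit was not always enough); inconclusive = only one of those two criteria met; inactive = neither criterion met.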
# Target: Protein disulfide-isomerase A6 (Homo sapiens) (UniProt Q15084)
# Test: inhibitors of ERp5-driven insulin aggregation, primary screen, biochemical, turbidity, absorbance 650 nm, single point (AID 651711)
# Settings: 90 min, at 9.99 µM, hits give high values
# UniProt Q15084, sequence (Q15084 whole entry, looked up): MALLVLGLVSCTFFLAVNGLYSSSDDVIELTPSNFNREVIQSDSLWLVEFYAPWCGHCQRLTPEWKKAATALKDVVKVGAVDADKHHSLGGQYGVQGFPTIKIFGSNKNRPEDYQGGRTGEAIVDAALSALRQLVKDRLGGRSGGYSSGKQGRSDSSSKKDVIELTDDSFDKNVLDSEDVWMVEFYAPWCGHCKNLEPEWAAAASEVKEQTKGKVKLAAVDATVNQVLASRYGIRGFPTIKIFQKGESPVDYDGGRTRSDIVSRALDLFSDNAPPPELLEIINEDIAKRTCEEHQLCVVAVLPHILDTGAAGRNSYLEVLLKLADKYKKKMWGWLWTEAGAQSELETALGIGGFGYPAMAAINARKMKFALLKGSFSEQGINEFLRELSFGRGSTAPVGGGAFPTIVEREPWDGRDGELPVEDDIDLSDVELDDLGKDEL
row,Structure (SMILES),inhibition
1,Oc1cccc2ccc(/C=C/c3ccccc3Br)nc12,inactive: 0.931%
2,C[C@@H]1CN([C@@H](C)CO)S(=O)(=O)c2ccc(C#CC3(O)CCCC3)cc2O[C@H]1CN(C)C(=O)Cc1ccncc1,inactive: -4.5%
3,COc1ccc(NC(=O)Nc2ccc3c(c2)C(=O)N([C@H](C)CO)C[C@@H](C)[C@@H](CN(C)Cc2ccc(Oc4ccccc4)cc2)O3)cc1,inactive: -0.476%
4,COc1ccccc1-c1ccc2c(c1)O[C@H](CN(C)C)[C@H](C)CN([C@H](C)CO)S2(=O)=O,inactive: 1.55%
5,CC(=O)NS(=O)(=O)c1ccc(NC(=S)NC(=O)CC(C)C)cc1,inconclusive: 40.5%
6,COc1ccc(S(=O)(=O)N2CCOCC2)cc1NC(=O)COC(=O)c1ccc(C)s1,inconclusive: 29.7%
7,CN1CCN2c3ccccc3CC(C#N)(C#N)C2C1 (stereo not given),inactive: 1.75%
8,COc1ccc(-c2csc(NC(=O)C3CCN(C(=O)c4ccc(F)cc4)CC3)n2)cc1OC,active: 29%
9,CCCc1cc(=O)[nH]c(SCc2ccc(F)cc2)n1,inconclusive: 44.4%
10,COCCN(Cc1cc2cc3c(cc2nc1Cl)OCO3)C(=O)c1cccc(C)c1,inconclusive: 38.3%
11,CCN(CC)S(=O)(=O)c1ccc2nc(NC(=O)c3ccco3)sc2c1,inconclusive: 34.8%
12,C[C@@H]1CN([C@@H](C)CO)C(=O)c2cc(NC(=O)Nc3ccc(F)cc3)ccc2O[C@@H]1CN(C)S(=O)(=O)c1ccc(Cl)cc1,inactive: -0.936%
13,CCN1[C@@H]2c3ccc(C4=CCCC4)c(=O)n3C[C@H]1[C@H](CO)[C@H]2C(=O)N[C@@H](C)c1ccccc1,inconclusive: 25.3%
14,CCCS(=O)(=O)NCc1ccc2c(c1)cc(C)n2C,inconclusive: 25.8%
15,Cc1ccc(NC(=O)CSc2ccc(-c3ccccn3)nn2)cc1,inactive: 3.17%
16,O=C(c1ccco1)N1CCCN(Cc2nc(-c3cccs3)no2)CC1,inconclusive: 55.7%
17,O=C(c1cccnc1)N1CC[C@@H]2[C@H](CO)Nc3ccc(-c4ccccc4)cc3[C@@H]21,inactive: -1.21%
18,O=C(Cc1ccccc1)N1C[C@H]2[C@@H](c3ccccc31)[C@H](CO)N2C(=O)C1CCCCC1,inactive: -0.263%
19,Cc1cc(N/N=C/c2ccc(O)cc2O)nc(N2CCOCC2)n1,inconclusive: 37%
20,Cc1ccc(Cl)cc1N1CCN(C(=O)C(=O)N2CCCCC2)CC1,inconclusive: 41.4%
21,CC1(C)C(Cl)C(=O)C(C(=O)c2ccccc2)C(=O)C1Cl (stereo not given),inactive: 13.1%
22,O=c1c(Br)c(N2CCCCC2)cnn1-c1ccccc1,inactive: 1.11%
23,N#Cc1ccccc1OCC(O)CS(=O)(=O)c1ccccc1 (stereo not given),inconclusive: 34.8%
24,CO[C@H]1CN(C)C(=O)c2cc(NC(C)=O)ccc2OC[C@@H](C)N(CCC(F)(F)F)C[C@@H]1C,inconclusive: 25%
25,COc1ccc2cc(CCNS(=O)(=O)c3c(C)cc(C)cc3C)c(=O)[nH]c2c1,inconclusive: 32.3%
26,Cc1ccc(F)cc1NC(=O)/C=C/c1ccc(S(=O)(=O)N2CCOCC2)cc1,inconclusive: 54.8%
27,C[C@@H]1CCCCO[C@@H](CN(C)CC2CCCCC2)[C@H](C)CN([C@H](C)CO)C(=O)c2cc(NC(=O)c3ccccc3)ccc2O1,inactive: -7.2%

row,Structure (SMILES),inhibition
1,Cc1csc2c(=O)sc(NC(=O)c3ccco3)nc12,inconclusive: 44.8%
2,CC(/C=C1\SC(=S)N(c2ccc(C(=O)O)cc2)C1=O)=C\c1ccccc1,inconclusive: 25.9%
3,Cc1cccc2c1-c1sc(C(=O)Nc3nccs3)cc1CO2,inconclusive: 40%
4,CCCC(=O)Nc1ccc2c(c1)OC[C@H](C)N(Cc1ccccc1F)C[C@H](C)[C@@H](OC)CN(C)C2=O,inactive: -2.95%
5,N#Cc1ccccc1OCC(=O)OCC(=O)c1ccc2c(c1)NC(=O)CO2,inactive: -0.35%
6,Nc1ccc2cc3ccccc3cc2c1,inactive: 1.66%
7,COc1ccc(C2NC(=O)NC(c3ccccc3)=C2c2nc3ccccc3s2)cc1 (stereo not given),inconclusive: 45.2%
8,COc1cc(OC)cc(C(=O)Nc2ncn[nH]2)c1,inconclusive: 53.1%
9,C[C@H](NC(=O)[C@H]1N2C(=O)c3ccccc3C2SC1(C)C)C(=O)N1CCC[C@H]1CO (stereo not given in full),inconclusive: 41.1%
10,O=C(C[C@H]1CC[C@@H]2[C@H](COC[C@H](O)CN2CC2CCOCC2)O1)NCC1CC1,inconclusive: 32%
11,O=C(CCn1ccnc1)Nc1nc2ccccc2[nH]1,inconclusive: 39.9%
12,CCOC(=O)c1ccc(NC(=O)Nc2ncccc2C)cc1,inconclusive: 38.5%
13,CN(/N=C/c1cccnc1)C1=NS(=O)(=O)c2ccccc21,inconclusive: 43.7%
14,CCOP(=O)(OCC)c1nc(-c2ccccc2)oc1NCc1ccccc1,inconclusive: 30.6%
15,CO[C@H]1CN(C)C(=O)c2ccc(NC(=O)Cc3ccccc3)cc2OC[C@@H](C)N(C(=O)c2ccccc2F)C[C@@H]1C,inconclusive: 28.2%
16,CCC[C@@H](CN1CCC[C@H]1CN1C(N)=NC[C@H]1C(C)C)N1C[C@@H]([C@H](C)CC)N(CCCC2CCCC2)C1=N,inactive: 12.6%
17,CN(C)S(=O)(=O)c1ccc(=S)[nH]c1,inconclusive: 40.5%
18,Cc1ccc(-c2nc3c(cnn3-c3ccccc3)c(=O)o2)cc1,inconclusive: 38.2%
19,C[C@H]1CN([C@@H](C)CO)C(=O)Cc2cc(NC(=O)Nc3cccc4ccccc34)ccc2O[C@H]1CN(C)Cc1ccc(C(F)(F)F)cc1,active: 69%
20,O=C(NC(=S)Nc1ccc(-c2nc3ncccc3o2)cc1)c1ccccc1F,inconclusive: 46.7%
21,CC(C)CC#Cc1ccc2c(c1)O[C@H](CN(C)C(=O)c1ccccc1F)[C@@H](C)CN([C@@H](C)CO)S2(=O)=O,inactive: 2.38%
22,N#CC1=C(N)Oc2cc(O)c(C=Nc3ccccc3)cc2C1c1ccccc1 (stereo not given),inconclusive: 27.7%
23,COCCNC(=O)C1Nc2ccc(C(F)(F)F)cc2C2C=CCC12 (stereo not given),inconclusive: 36.8%
24,O=C(C[C@@H]1CC[C@@H](NS(=O)(=O)c2ccccc2)[C@H](CO)O1)NCc1ccncn1,inconclusive: 46.7%
25,COc1cccc(C(=O)Nc2sc3c(c2C#N)CCN(C(C)=O)C3)c1,inactive: 2.76%
26,C=CCn1c(SCC(=O)N(CC)C2CCS(=O)(=O)C2)nc2ccccc2c1=O (stereo not given),inconclusive: 43.8%
27,COc1ccc(-c2csc3ncnc(Oc4cccc5ccc(C)nc45)c23)cc1,inconclusive: 40.2%

row,Structure (SMILES),inhibition
1,O=C(CSCc1ccc(Cl)cc1)NN=C1CCCC1,inconclusive: 42.5%
2,Cc1ccc(S(=O)(=O)N2CCOCC2)cc1NC(=O)CN1CCN(c2ccc(O)cc2)CC1,inconclusive: 47.3%
3,Cc1ccc(C(=O)Nc2ccc3c(c2)C(=O)NC3=O)cc1,inconclusive: 53.2%
4,O=C(Nc1ccc2c(c1)C(=O)NC2=O)c1cccc(Cl)c1,inconclusive: 47.4%
5,Cc1cc(C)c(C#N)c(Cl)n1,inconclusive: 36.6%
6,COc1ccc(CN(C)C[C@@H]2OCCCC[C@@H](C)Oc3ccc(NC(=O)CCC(F)(F)F)cc3C(=O)N([C@H](C)CO)C[C@H]2C)cc1,inactive: -0.601%
7,COc1cccc(/C=C/C(=O)OCC(=O)NC2CCCCCCC2)c1,inactive: 3.37%
8,COc1ccc(S(=O)(=O)NCC2CCCN(C(=O)c3cccnc3)C2)cc1 (stereo not given),inconclusive: 42.4%
9,CCOC(=O)c1cnn(-c2ccccc2)c1-n1cccc1C(=O)C(=O)N(CC)CC,inconclusive: 30.5%
10,O=C(NC1=NCCS1)c1cccc2ccccc12,inconclusive: 27.6%
11,O=c1cc(-c2ccccc2)c2cc3c(cc2[nH]1)OCCO3,inconclusive: 44.3%
12,O=C(c1ccc(Cl)cc1)N1CCC(N2CCC(C(=O)N3CCOCC3)CC2)CC1,inactive: 4.94%
13,O=C(Cc1cccs1)NCCN1CCOCC1,inconclusive: 33.9%
14,O=C(/C=C/c1ccccc1)c1ccc(NC2=NCCCS2)cc1,inactive: -5.56%
15,COc1ccccc1CNC(=O)c1cc(C)nn1-c1ccccc1,inconclusive: 28.1%
16,COc1cccc(C(=O)OCC(=O)c2[nH]c(C)c(C(C)=O)c2C)c1,active: 27.2%
17,COc1ccc(C2CC(c3cccs3)=NN2c2nc(C)c(C(C)=O)s2)cc1OC (stereo not given),inconclusive: 29.2%
18,Cc1cc(C(=O)NNCc2ccccc2)no1,inconclusive: 45.7%
19,CCCC(=O)Nc1ccc2c(c1)C(=O)N(C)C[C@@H](OC)[C@H](C)CN(Cc1nccs1)[C@H](C)CO2,inactive: 13.3%
20,CC1(C)C[C@@H](O)CC2(C1)C[C@]1(C)CC(O)[C@H]2C(C)(C)C1 (stereo not given in full),inconclusive: 47.6%
21,Cc1cnc(C(=O)OCC(=O)NC2CCCCCC2)cn1,inconclusive: 46.5%
22,CCCCc1c(-c2ccccc2OC)ncn1CCc1ccc(OC)cc1,inactive: -4.35%
23,CCC(=O)N1C[C@@H](C)[C@H](OC)CN(C)C(=O)c2cc(NC(=O)c3ccc(F)cc3)ccc2OC[C@H]1C,inconclusive: 35.1%
24,C[C@H](CO)N1C[C@H](C)[C@H](CN(C)C(=O)C2CCOCC2)Oc2ncc(/C=C/c3ccccc3)cc2C1=O,inconclusive: 26.8%
25,CCC(=O)Nc1ccc2c(c1)C(=O)N(C)[C@@H]1CC[C@@H](CC(=O)NCC3CC3)O[C@@H]1CO2,active: 47.9%
26,C[C@@H]1CCCCO[C@@H](CN(C)C(=O)CCC(F)(F)F)[C@@H](C)CN([C@@H](C)CO)C(=O)c2cc(NS(=O)(=O)c3ccc(Cl)cc3)ccc2O1,active: 70.2%
